According to article PMC4336329 (PLoS ONE, 2015):
About 2,200 (0.71%) of roughly 310,000 compounds showed an effect of 50% or more. Effects have a minus sign here. The list shows a part of the results.

Target: human ether-à-go-go-related gene (hERG) potassium channel (human, UniProt Q12809)
Assay: primary screen, population patch clamp on CHO cells stably expressing hERG

Sequence of human ether-à-go-go-related gene (hERG) potassium channel (Q12809 whole entry, looked up): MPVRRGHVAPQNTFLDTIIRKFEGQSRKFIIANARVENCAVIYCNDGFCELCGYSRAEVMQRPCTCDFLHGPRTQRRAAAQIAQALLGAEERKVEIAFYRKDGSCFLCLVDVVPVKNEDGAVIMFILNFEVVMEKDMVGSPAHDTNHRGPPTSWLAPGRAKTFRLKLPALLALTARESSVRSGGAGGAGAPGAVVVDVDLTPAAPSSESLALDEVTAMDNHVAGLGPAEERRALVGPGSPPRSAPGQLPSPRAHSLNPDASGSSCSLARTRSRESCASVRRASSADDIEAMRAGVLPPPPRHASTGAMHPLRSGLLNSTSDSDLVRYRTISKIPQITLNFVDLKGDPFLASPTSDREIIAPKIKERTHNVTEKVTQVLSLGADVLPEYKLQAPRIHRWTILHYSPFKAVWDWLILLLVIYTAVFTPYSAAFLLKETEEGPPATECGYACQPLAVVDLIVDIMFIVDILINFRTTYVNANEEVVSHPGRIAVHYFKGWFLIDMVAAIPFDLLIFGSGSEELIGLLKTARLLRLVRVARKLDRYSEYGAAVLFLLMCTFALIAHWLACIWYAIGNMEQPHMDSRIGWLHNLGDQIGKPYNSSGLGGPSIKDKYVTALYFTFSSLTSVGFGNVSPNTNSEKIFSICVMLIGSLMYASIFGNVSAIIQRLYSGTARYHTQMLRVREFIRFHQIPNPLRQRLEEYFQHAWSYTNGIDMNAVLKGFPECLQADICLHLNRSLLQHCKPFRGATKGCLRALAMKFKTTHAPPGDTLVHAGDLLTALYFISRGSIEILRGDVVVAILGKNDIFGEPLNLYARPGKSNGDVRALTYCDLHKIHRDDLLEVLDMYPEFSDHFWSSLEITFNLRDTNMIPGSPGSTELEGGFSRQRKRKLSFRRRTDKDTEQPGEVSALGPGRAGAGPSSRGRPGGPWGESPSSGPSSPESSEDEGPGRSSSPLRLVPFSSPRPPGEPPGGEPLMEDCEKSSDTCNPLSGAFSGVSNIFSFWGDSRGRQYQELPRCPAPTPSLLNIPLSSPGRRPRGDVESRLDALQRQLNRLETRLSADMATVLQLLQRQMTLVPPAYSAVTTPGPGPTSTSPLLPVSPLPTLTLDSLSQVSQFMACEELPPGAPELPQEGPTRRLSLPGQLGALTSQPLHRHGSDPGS

Going from `Cc1cc(C)n2c(SCc3cccs3)nnc2n1` to `Cn1c2ccccc2c2nnc(SCC(N)=O)nc21`, the “hERG current change (%, negative = inhibition) at 1uM” value rises from 5.69% to 15.4%.

Going from `C=CCn1c(O)c(C(C)=NCCCn2ccnc2)c(=O)[nH]c1=O` to `CCCCC(=O)NC1(C(F)(F)F)C(=O)Nc2c1c(=O)[nH]c(=O)n2Cc1ccco1` (stereo not shown), the “hERG current change (%, negative = inhibition) at 1uM” value falls from 12.1% to 7.24%.

First: COc1cccc(COC(=O)Nc2ccccc2F)c1
Second: CCOc1ccccc1NC(=O)c1cccc(NC(=O)c2ccco2)c1
The “hERG current change (%, negative = inhibition) at 1uM” value of the first is higher: 13% for the first, -1.6% for the second.

Compared with `CC(=O)c1cccc(NC(=O)c2ccc(N(Cc3ccccc3C)S(C)(=O)=O)cc2)c1`, `O=C(O)Cc1ccc(NC(=O)C(c2ccccc2)c2ccccc2)cc1` is higher in “hERG current change (%, negative = inhibition) at 1uM” value: -3.8% for the first, 6.62% for the second.

Going from `CC(C(O)c1cc(=O)c(OCc2ccccc2)co1)[N+](=O)[O-]` (stereo not shown) to `COc1ccccc1C(=O)NNC(=O)c1ccccc1[N+](=O)[O-]`, the “hERG current change (%, negative = inhibition) at 1uM” value falls from 16.8% to 12%.

Compared with `CCN1CCCC1CNC(=S)Nc1ccc(C(C)=O)cc1` (stereo not shown), `CCc1ccc(NC(=O)C(=O)NCC2CCCN2S(=O)(=O)c2ccccc2)cc1` (stereo not shown) is higher in “hERG current change (%, negative = inhibition) at 1uM” value: 9.33% for the first, 9.87% for the second.

Compared with `Oc1c(C=Nc2cccc3nsnc23)ccc2ccccc12`, `Oc1ccccc1CNc1cnc2ccccc2c1` is lower in “hERG current change (%, negative = inhibition) at 1uM” value: 16.2% for the first, 3.11% for the second.

Compared with `COc1ccc(-c2nn(-c3ccccc3)cc2C(N)=O)cc1OC`, `COc1ccc(C(=O)C2CCCN(Cc3cn[nH]c3-c3ccccc3)C2)cc1OC` (stereo not shown) is lower in “hERG current change (%, negative = inhibition) at 1uM” value: 4.36% for the first, -75.4% for the second.

Going from `Cc1ccc(-c2noc(CN(C(=O)C(c3ccccc3)c3ccccc3)C(C)C)n2)cc1` to `CC1=NNC(=O)/C1=C\c1cn(-c2ccccc2)nc1-c1ccccc1`, the “hERG current change (%, negative = inhibition) at 1uM” value falls from 13.9% to 12%.

First: Cc1cccc(CN2CCN(CC(=O)NCc3cccs3)C2=O)c1
Second: COc1ccc(CN2CCN(S(=O)(=O)c3ccccc3)CC2)cc1Br.O=C(O)C(=O)O
The “hERG current change (%, negative = inhibition) at 1uM” value of the first is lower: -12.3% for the first, -2.93% for the second.

Going from `O=C(CCn1nnc2ccccc21)N1CCN(c2ccccc2)CC1` to `Cc1nc(N2CCN(c3ccccc3)CC2)[nH]c(=O)c1Cc1ccccc1`, the “hERG current change (%, negative = inhibition) at 1uM” value falls from 8.73% to 5.23%.

First: Cc1c(OC(C)C(=O)NC2CC(C)(C)NC(C)(C)C2)ccc2c3c(c(=O)oc12)CCC3 (stereo not shown)
Second: CC1(C)CC(NC(=O)C(=O)NCCc2ccc(Cl)cc2)CC(C)(C)N1
The “hERG current change (%, negative = inhibition) at 1uM” value of the first is higher: 10.6% for the first, 2.48% for the second.

Compared with `COc1ccccc1N1CCN(C(=O)c2ccc(Br)s2)CC1.Cl`, `COc1ccccc1N1CCN(CCC(=O)Nc2ccc3c(c2)OCO3)CC1` is higher in “hERG current change (%, negative = inhibition) at 1uM” value: 4.94% for the first, 7.26% for the second.

Compared with `O=C(CSc1ncn[nH]1)N1N=C2/C(=C/c3ccco3)CCCC2C1c1ccco1` (stereo not shown), `O=C1CCCN1CCC(=O)N1CCCC(Nc2ccc(F)cc2)C1` (stereo not shown) is lower in “hERG current change (%, negative = inhibition) at 1uM” value: 0.0596% for the first, -3.86% for the second.

Compared with `Cc1cc(C(=O)N2CCN(c3ccccc3O)CC2)c(C)o1`, `Cc1cc(C)n(-c2ccc(C(=O)Nc3ccccc3N3CCOCC3)cc2)n1` is higher in “hERG current change (%, negative = inhibition) at 1uM” value: -4.3% for the first, 4.71% for the second.

First: CS(=O)(=O)N1CCN(c2nc(-c3ccc(F)cc3)cs2)CC1
Second: CC(C)=C1SC(N2CCN(c3ccc(Cl)cc3)CC2)=NC1=O
The “hERG current change (%, negative = inhibition) at 1uM” value of the first is lower: -21% for the first, 14.5% for the second.

Going from `CCOc1nc(Nc2ccc(OC)cc2)nc(N2CCOCC2)n1` to `COc1ccc(NC(=O)COc2ncnc3ccccc23)cc1S(=O)(=O)N1CCOCC1`, the “hERG current change (%, negative = inhibition) at 1uM” value rises from 4.84% to 7.05%.

Compared with `COc1ccc(C(=O)Nc2nnc(SCC(=O)NC3CCCC3)s2)c(OC)c1`, `COc1cccc(CNC(=S)NC2CCCC2)c1` is lower in “hERG current change (%, negative = inhibition) at 1uM” value: 14.4% for the first, 4.47% for the second.

Going from `Cc1ccc(S(=O)(=O)N2CCC(C(=O)NNC(=O)C3CC3)CC2)cc1Cl` to `CCOC(=O)N1CCC(NC(=O)C2CCN(c3nc(-c4ccc(OC)cc4)no3)CC2)CC1`, the “hERG current change (%, negative = inhibition) at 1uM” value rises from 11.1% to 11.8%.

Compared with `C/C(N)=C(/C#N)C(=O)CSc1nc2ccccc2n1CC(C)C`, `CCNC(=O)CC1C(=O)N(c2ccccc2)C(=O)N1CCC(C)C` (stereo not shown) is lower in “hERG current change (%, negative = inhibition) at 1uM” value: 10.1% for the first, 7.67% for the second.

Going from `O=C(CSc1nnc(SCc2ccccc2Cl)s1)N/N=C/c1ccc(C(=O)O)cc1` to `Nc1ccc(C(=O)Nc2ccccc2C(=O)O)cc1`, the “hERG current change (%, negative = inhibition) at 1uM” value falls from 10.7% to 10.2%.

Compared with `CC(C)COP(=O)(OCC(C)C)C(Nc1ccccc1)c1ccc(F)cc1` (stereo not shown), `Cc1ccc(C(=O)CCNc2ccccc2)o1` is lower in “hERG current change (%, negative = inhibition) at 1uM” value: 11.5% for the first, 7.76% for the second.

First: Cl.Oc1ccc(C2=CSC3=NCCN23)cc1O
Second: COc1ccc(/C=N/NC(=O)c2cc(Br)ccc2O)cc1Cn1cc(Cl)cn1
The “hERG current change (%, negative = inhibition) at 1uM” value of the first is higher: 3.61% for the first, -4.94% for the second.

Compared with `CCOC(=O)C1(CCc2ccccc2)CCN(Cc2ccc(C(=O)OC)cc2)CC1`, `CCOC(=O)C1(CCc2ccccc2)CCN(Cc2ccc(NC(C)=O)cc2)CC1` is higher in “hERG current change (%, negative = inhibition) at 1uM” value: -86.1% for the first, -72.5% for the second.

First: Cl.O=C(NCCN1CCCC1)c1ccc(Br)cc1
Second: N/C(=N\OC(=O)N1CCOCC1)c1ccc(Br)cc1
The “hERG current change (%, negative = inhibition) at 1uM” value of the first is lower: 3.38% for the first, 9.03% for the second.

First: Cc1cc(C)cc(OCC(=O)OCC(=O)c2cc(C)n(C3CC3)c2C)c1
Second: Cc1ccc(C)c(OCCC(=O)OCC(=O)NC2CC2)c1
The “hERG current change (%, negative = inhibition) at 1uM” value of the first is lower: -2.2% for the first, 14.6% for the second.

Going from `CC1=CC(c2ccc(Cl)cc2)n2nc(NC(=O)CCCC(=O)O)nc2N1` (stereo not shown) to `O=C(O)CCCC(=O)Nc1ccc(C(=O)NCc2cccnc2)cc1`, the “hERG current change (%, negative = inhibition) at 1uM” value falls from 15.6% to 11%.

Compared with `Cc1ccc(N2C(=O)c3cccc4c(C(=O)O)ccc(c34)C2=O)cc1`, `Cc1ccc(/C(O)=C2\C(=O)C(=O)N(C)C2c2ccc(Br)cc2)cc1` (stereo not shown) is lower in “hERG current change (%, negative = inhibition) at 1uM” value: 12.6% for the first, 10.9% for the second.

Going from `Cc1cccc(NC2=NC(C)(C)N=C(N)N2)c1` to `CC12CCC(C(=O)Nc3ccccc3)(C(Br)C1=O)C2(C)C` (stereo not shown), the “hERG current change (%, negative = inhibition) at 1uM” value falls from 10.5% to 0.0202%.

Compared with `CC(C)OC(=O)CSc1nc(N)c(C#N)cc1C#N`, `CCOC(=O)c1ccc(C(=O)OCC)nc1` is higher in “hERG current change (%, negative = inhibition) at 1uM” value: 5.88% for the first, 16.8% for the second.

First: CCCCc1cc(=O)oc2cc(C)cc(OCC(=O)NC(Cc3ccc(Cl)cc3)C(=O)O)c12 (stereo not shown)
Second: O=C(COc1ccc(Cl)cc1)Nc1nc(-c2cccs2)cs1
The “hERG current change (%, negative = inhibition) at 1uM” value of the first is lower: 13.6% for the first, 14.5% for the second.

First: CCn1nc(CC(=O)Nc2ccc(-n3cnnn3)c(C)c2)c2ccccc2c1=O
Second: CC(=O)c1cccc(-n2nnnc2SCC(=O)Nc2ccccc2N2CCCCC2)c1
The “hERG current change (%, negative = inhibition) at 1uM” value of the first is lower: -3.91% for the first, 5.69% for the second.

Going from `Cc1nc2ncnn2c(C)c1CCC(=O)Nc1ccc(S(=O)(=O)N2CCCCCC2)cc1` to `CC(=O)N1CCN(Cc2nc3cc(NC(=O)c4cccc(Br)c4)ccc3n2C)CC1`, the “hERG current change (%, negative = inhibition) at 1uM” value rises from 3.76% to 10.5%.

Going from `COc1ccc(C2=NN(C(=O)CN3CCCC3)C(c3ccc(OC)cc3)C2)cc1` (stereo not shown) to `COc1cccc(C(=O)N/N=c2\oc3c(OC)cccc3cc2C(=O)NCc2ccccc2)c1`, the “hERG current change (%, negative = inhibition) at 1uM” value rises from 0.308% to 4.53%.

Going from `CC(=O)C1=C(C)NC(=O)NC1c1ccc2c(c1)OCO2` (stereo not shown) to `O=C1OCc2cc(NC(=O)C3COc4ccccc4O3)ccc21` (stereo not shown), the “hERG current change (%, negative = inhibition) at 1uM” value falls from 11.9% to 4.29%.

First: Cc1c2c(nc3c(C(=O)NC4CCCCC4C)cnn13)CCCC2 (stereo not shown)
Second: COc1ccc2[nH]c(=O)c(C(c3nnnn3C3CCCC3)N(C)C3CCCCC3)cc2c1 (stereo not shown)
The “hERG current change (%, negative = inhibition) at 1uM” value of the first is higher: -1.98% for the first, -3.8% for the second.

First: CCn1c(O)c(C(=O)CC2NCCc3ccccc32)c(=O)n(CC)c1=S (stereo not shown)
Second: COc1ccc(/C=C2\SC(=S)N(CCC(=O)Nc3ccccn3)C2=O)cc1OC
The “hERG current change (%, negative = inhibition) at 1uM” value of the first is lower: 16.2% for the first, 21.9% for the second.

Compared with `O=C(/C=C/c1ccco1)Oc1cc(Br)cc(/C=N/NC(=O)c2ccccc2O)c1`, `Oc1c(Br)cc(/C=N/Nc2ccc(Cl)nn2)cc1Br` is lower in “hERG current change (%, negative = inhibition) at 1uM” value: 9.43% for the first, 3.08% for the second.

Going from `Cc1ccc2c(c1)NCCO2` to `COc1ccc(C2NC(=O)CCC2[N+](=O)[O-])cc1OC` (stereo not shown), the “hERG current change (%, negative = inhibition) at 1uM” value rises from 9.1% to 9.42%.

`CC12CN3CC(C)(CN(C1)C31CCOCC1)C2=O` and `CC12CCC(=O)N1c1ccccc1C(=O)N2c1ccccc1` (stereo not shown) are the same in “hERG current change (%, negative = inhibition) at 1uM” value: 11.1% for the first, 11.1% for the second.

First: CCOc1ccc2oc(-c3ccccc3)c(C(=O)N(C)C)c2c1
Second: COc1ccccc1NC(=O)COc1ccc(C(=O)NCc2ccccc2)cc1OC
The “hERG current change (%, negative = inhibition) at 1uM” value of the first is lower: 7.27% for the first, 11.8% for the second.

First: COc1cc(NC(=O)c2c(F)c(F)c(OC)c(F)c2F)ccc1NC(=O)c1cccs1
Second: COc1cc(/C=C2\C(=N)N3N=C(S(C)(=O)=O)SC3=NC2=O)cc(OC)c1OCCOc1cccc(C)c1
The “hERG current change (%, negative = inhibition) at 1uM” value of the first is lower: 6.32% for the first, 10.4% for the second.

Compared with `CCN(CC)c1ccc2c(c1)OC(N)=C(C#N)C2c1cccnc1` (stereo not shown), `Cc1cc(C)cc(OCCn2ccnc2)c1` is higher in “hERG current change (%, negative = inhibition) at 1uM” value: 6.3% for the first, 13.1% for the second.

Going from `O=c1[nH]c2cc(Cl)cc(Cl)c2[nH]c1=O` to `Cc1cc(C)cc(NC(=O)CCn2cnc3cc(C)c(C)cc32)c1`, the “hERG current change (%, negative = inhibition) at 1uM” value falls from 13.8% to 8.3%.

Going from `S=c1nn[nH]n1C12CC3CC(CC(C3)C1)C2` to `CCOC(=O)N1CCN(Cc2nc(C3CC3)no2)CC1`, the “hERG current change (%, negative = inhibition) at 1uM” value rises from 6.97% to 11.8%.

`CC1(C)Cc2ccccc2C(/C(C#N)=N/O)=N1` was tested, and the “hERG current change (%, negative = inhibition) at 1uM” value was 6.29%.
